Test results: the DeepSol protein solubility set

Assay: soluble on expression in E. coli; label from the status in PepcDB or PDB records

Soluble on expression in E. coli, soluble:
ASEKRPFMCAYPGCNKRYFKLSHLQMHSRKHTGEKPYQCDFKDCERRFSRSDQLKRHQRRHTGVKPFQCKTCQRKFSRSDHLKTHTRTHTGEKPFSCRWPSCQKKFARSDELVRHHNMH
MSLKGVLFDLDGVITDTAEFHYHAWKKLGNEIGISIDRVFNEQLKGVSREDSLQLLLKYGKKEGTFSSEEFAQLAQRKNDYYLEMIQAITPEDVYPGILSLLTELREANIKIALASASKNGPFLLEKMQLTPLFDAIANPADVQAGKPAPDIFILAAKEIDLTPAECLGIEDAKAGIQAILASGAQPVGVGRKEELGEGLPIVPETSALTFDYLKKVWLDHEGHHHHHH
MVAITAAASRLGTSAFSDAPPVELRANWSEEDLETVIRAVYRQVLGNDYVMASERLVSAESLLRNGKITVREFVRAVAKSELYKEKFLYGNFQTRVIELNYKHLLGRAPYDESEVIFHLDLYENEGFDADIDSYIDSPEYTNSFGDWVVPYYRGFNTQPGLEHHHHHH
PFGNTHNKYKLNYKSEEEYPDLSKHNNHMAKVLTPDLYKKLRDKETPSGFTLDDVIQTGVDNPGHPFIMTVGCVAGDEESYTVFKDLFDPIIQDRHGGFKPTDKHKTDLNHENLKGGDDLDPHYVLSSRVRTGKSIKGYTLPPHCSRGERRAVEKLSVEALNSLTGEFKGKYYPLKSMTEQEQQQLIDDHFLFDKPVSPLLLASGMARDWPDARGIWHNDNKSFLVWVNEEDHLRVISMEKGGNMKEVFRRFCVGLQKIEEIFKKAGHPFMWNEHLGYVLTCPSNLGTGLRGGVHVKLAHLSKHPKFEEILTRLRLQKRGTGGVDTAAVGSVFDISNADRLGSSEVEQVQLVVDGVKLMVEMEKKLEKGQSIDDMIPAQK
